In the supplement of paper PMC8728848:
The other results are listed elsewhere or left out.

How the values were obtained:
Experiment in all cases: glycan array binding signal (z-score within array); higher = stronger binding
Conditions in all cases: glycan notation: IUPAC condensed, linker removed
Kdn(a2-3)Gal(b1-3)GlcNAc = molecular target: Kdn(a2-3)Gal(b1-3)GlcNAc
Summary of the method: (§1)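 Glycan array data came from 3228 arrays in the Consortium for Functional Glycomics database, and only arrays with an available protein sequence were kept. Glycan names were put into IUPAC-condensed notation, and columns mapping to the same glycan were averaged. The binding signal is a within-array Z-score, averaged across arrays of one protein sequence run at different concentrations or buffers and across linkers. A negative Z-score can be read as non-binding.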

Kdn(a2-3)Gal(b1-4)Glc = molecular target: Kdn(a2-3)Gal(b1-4)Glc
Summary of the method: as §1

Kdn(a2-3)Gal(b1-4)GlcNAc = molecular target: Kdn(a2-3)Gal(b1-4)GlcNAc
Summary of the method: as §1

[1] = molecular target: Kdn(a2-3)Gal(b1-4)[Fuc(a1-3)]GlcNAc
Summary of the method: as §1

Kdn(a2-6)Gal(b1-4)GlcNAc = molecular target: Kdn(a2-6)Gal(b1-4)GlcNAc
Summary of the method: as §1

[2] = molecular target: Man(a1-2)Man(a1-2)Man(a1-3)Man
Summary of the method: as §1

[3] = molecular target: Man(a1-2)Man(a1-2)Man(a1-6)[Man(a1-3)]Man
Summary of the method: as §1

Man(a1-2)Man(a1-3)Man = molecular target: Man(a1-2)Man(a1-3)Man
Summary of the method: as §1

[4] = molecular target: Man(a1-2)Man(a1-3)[Man(a1-2)Man(a1-6)]Man
Summary of the method: as §1

[5] = molecular target: Man(a1-2)Man(a1-3)[Man(a1-2)Man(a1-6)]Man(a1-6)[Man(a1-2)Man(a1-2)Man(a1-3)]Man
Summary of the method: as §1

[6] = molecular target: Man(a1-2)Man(a1-3)[Man(a1-2)Man(a1-6)]Man(a1-6)[Man(a1-2)Man(a1-2)Man(a1-3)]Man(b1-4)GlcNAc(b1-4)GlcNAc
Summary of the method: as §1

[7] = molecular target: Man(a1-2)Man(a1-3)[Man(a1-6)]Man(a1-6)[Man(a1-2)Man(a1-3)]Man(b1-4)GlcNAc(b1-4)GlcNAc
Summary of the method: as §1

[8] = molecular target: Man(a1-2)Man(a1-6)[Man(a1-3)]Man(a1-6)[Man(a1-2)Man(a1-2)Man(a1-3)]Man
Summary of the method: as §1

[9] = molecular target: Man(a1-2)Man(a1-6)[Man(a1-3)]Man(a1-6)[Man(a1-2)Man(a1-2)Man(a1-3)]Man(b1-4)GlcNAc(b1-4)GlcNAc
Summary of the method: as §1

Man(a1-3)[Man(a1-6)]Man = molecular target: Man(a1-3)[Man(a1-6)]Man
Summary of the method: as §1

[10] = molecular target: Man(a1-3)[Man(a1-6)]Man(a1-6)[Man(a1-2)Man(a1-3)]Man(b1-4)GlcNAc(b1-4)GlcNAc
Summary of the method: as §1

[11] = molecular target: Man(a1-3)[Man(a1-6)]Man(a1-6)[Man(a1-3)]Man
Summary of the method: as §1

[12] = molecular target: Man(a1-3)[Man(a1-6)]Man(a1-6)[Man(a1-3)]Man(b1-4)GlcNAc(b1-4)GlcNAc
Summary of the method: as §1

[13] = molecular target: Man(a1-3)[Man(a1-6)]Man(b1-4)GlcNAc(b1-4)GlcNAc
Summary of the method: as §1

[14] = molecular target: Man(a1-3)[Man(a1-6)]Man(b1-4)GlcNAc(b1-4)[Fuc(a1-6)]GlcNAc
Summary of the method: as §1

Man(a1-6)Man = molecular target: Man(a1-6)Man
Summary of the method: as §1

Man(b1-4)GlcNAc = molecular target: Man(b1-4)GlcNAc
Summary of the method: as §1

MurNAc(b1-4)GlcNAc = molecular target: MurNAc(b1-4)GlcNAc
Summary of the method: as §1

Neu5Ac(a2-3)Gal = molecular target: Neu5Ac(a2-3)Gal
Summary of the method: as §1

[15] = molecular target: Neu5Ac(a2-3)Gal(b1-3)GalNAc
Summary of the method: as §1

[16] = molecular target: Neu5Ac(a2-3)Gal(b1-3)GalNAc(b1-3)Gal(a1-4)Gal(b1-4)Glc
Summary of the method: as §1

[17] = molecular target: Neu5Ac(a2-3)Gal(b1-3)GalNAc(b1-4)Gal(b1-4)Glc
Summary of the method: as §1

[18] = molecular target: Neu5Ac(a2-3)Gal(b1-3)GalNAc(b1-4)[Neu5Ac(a2-3)]Gal(b1-4)Glc
Summary of the method: as §1

[19] = molecular target: Neu5Ac(a2-3)Gal(b1-3)GalNAc(b1-4)[Neu5Ac(a2-8)Neu5Ac(a2-3)]Gal(b1-4)Glc
Summary of the method: as §1

[20] = molecular target: Neu5Ac(a2-3)Gal(b1-3)GalNAc6S
Summary of the method: as §1

[21] = molecular target: Neu5Ac(a2-3)Gal(b1-3)GlcNAc
Summary of the method: as §1

[22] = molecular target: Neu5Ac(a2-3)Gal(b1-3)GlcNAc(b1-2)Man
Summary of the method: as §1

[23] = molecular target: Neu5Ac(a2-3)Gal(b1-3)GlcNAc(b1-2)Man(a1-3)[GlcNAc(b1-4)][Neu5Ac(a2-3)Gal(b1-3)GlcNAc(b1-2)Man(a1-6)]Man(b1-4)GlcNAc(b1-4)GlcNAc
Summary of the method: as §1

[24] = molecular target: Neu5Ac(a2-3)Gal(b1-3)GlcNAc(b1-2)Man(a1-3)[Neu5Ac(a2-3)Gal(b1-3)GlcNAc(b1-2)Man(a1-6)]Man(b1-4)GlcNAc(b1-4)GlcNAc
Summary of the method: as §1

[25] = molecular target: Neu5Ac(a2-3)Gal(b1-3)GlcNAc(b1-2)[Neu5Ac(a2-3)Gal(b1-3)GlcNAc(b1-4)]Man(a1-6)[Neu5Ac(a2-3)Gal(b1-3)GlcNAc(b1-2)Man(a1-3)]Man(b1-4)GlcNAc(b1-4)GlcNAc
Summary of the method: as §1

[26] = molecular target: Neu5Ac(a2-3)Gal(b1-3)GlcNAc(b1-3)Gal(b1-3)GlcNAc
Summary of the method: as §1

[27] = molecular target: Neu5Ac(a2-3)Gal(b1-3)GlcNAc(b1-3)Gal(b1-4)GlcNAc
Summary of the method: as §1

[28] = molecular target: Neu5Ac(a2-3)Gal(b1-3)GlcNAc(b1-3)GalNAc
Summary of the method: as §1

B1: PVL (Psathyrella velutina), Q309D1_9AGAR (protein)
chain: MSVVVISQALPVPTRIPGVADLVGFGNGGVYIIRNSLLIQVVKVINNFGYDAGGWRVEKHVRLLADTTGDNQPDVVGFGENGVWISTNNGNNTFVDPPKMVLANFAYAAGGWRVEKHIRFMADLRKTGRADIVGFGDGGIYISRNNGGGQFAPAQLALNNFGYAQGWRLDRHLRFLADVTGDGLLDVVGFGENQVYIARNSGNGTFQPAQAVVNNFCIGAGGWTISAHPRVVADLTGDRKADILGFGVAGVYTSLNNGNGTFGAVNLVLKDFGVNSGWRVEKHVRCVSSLTNKKVGDIIGFGDAGVYVALNNGNGTFGPVKRVIDNFGYNQGWRVDKHPRFVVDLTGDGCADIVGFGENSVWACMNKGDGTFGPIMKLIDDMTVSKGWTLQKTVRYAANLYL
Question: Which results are given for B1?
Answer: glycan array binding signal (z-score) (Kdn(a2-3)Gal(b1-3)GlcNAc): -0.359; glycan array binding signal (z-score) (Kdn(a2-3)Gal(b1-4)Glc): -0.365; glycan array binding signal (z-score) (Kdn(a2-3)Gal(b1-4)GlcNAc): -0.363; glycan array binding signal (z-score) [1]: -0.363; glycan array binding signal (z-score) (Kdn(a2-6)Gal(b1-4)GlcNAc): -0.356; glycan array binding signal (z-score) [2]: -0.369; glycan array binding signal (z-score) [3]: -0.366; glycan array binding signal (z-score) (Man(a1-2)Man(a1-3)Man): -0.358; glycan array binding signal (z-score) [4]: -0.376; glycan array binding signal (z-score) [5]: -0.367; glycan array binding signal (z-score) [6]: -0.373; glycan array binding signal (z-score) [7]: -0.32; glycan array binding signal (z-score) [8]: -0.354; glycan array binding signal (z-score) [9]: -0.37; glycan array binding signal (z-score) (Man(a1-3)[Man(a1-6)]Man): -0.366; glycan array binding signal (z-score) [10]: -0.318; glycan array binding signal (z-score) [11]: -0.36; glycan array binding signal (z-score) [12]: -0.36; glycan array binding signal (z-score) [13]: -0.241; glycan array binding signal (z-score) [14]: -0.354; glycan array binding signal (z-score) (Man(a1-6)Man): -0.36; glycan array binding signal (z-score) (Man(b1-4)GlcNAc): -0.358; glycan array binding signal (z-score) (MurNAc(b1-4)GlcNAc): 0.43; glycan array binding signal (z-score) (Neu5Ac(a2-3)Gal): -0.341; glycan array binding signal (z-score) [15]: -0.285; glycan array binding signal (z-score) [16]: -0.34; glycan array binding signal (z-score) [17]: -0.361; glycan array binding signal (z-score) [18]: -0.206; glycan array binding signal (z-score) [19]: -0.358; glycan array binding signal (z-score) [20]: -0.235; glycan array binding signal (z-score) [21]: -0.331; glycan array binding signal (z-score) [22]: -0.316; glycan array binding signal (z-score) [23]: -0.365; glycan array binding signal (z-score) [24]: -0.362; glycan array binding signal (z-score) [25]: -0.062; glycan array binding signal (z-score) [26]: -0.215; glycan array binding signal (z-score) [27]: -0.208; glycan array binding signal (z-score) [28]: -0.336
